Results published in PubChem BioAssay AID485281 (National Center for Advancing Translational Sciences (NCATS), 2010).
Values joined by “and” are separate entries in the source; they are usually repeats but may differ in a detail not shown here. Equal values may be shown once. About 260 (0.074%) of roughly 350,000 compounds were called active. The shares of active, inactive and inconclusive entries below differ from those in the screen. Calls come from the whole dose curve; as a rule, active = well fitted inhibition curve with a large enough effect; inconclusive = small, poorly fitted or top-dose-only effect; inactive = no such curve, though single readings can be large or run the other way. Where the call is inconclusive, the potency comes from a doubtful curve fit.

Target: Ferritin light chain (Equus caballus) (UniProt P02791)
Assay: qHTS Assay for Identification of Novel General Anesthetics; note: nearly all actives have a fitted effect of over 20% in size
Details: apoferritin/1-aminoanthracene competitive binding, fluorescence; activity change, negative = displacement: at 77.5 µM (top of the series)
Method in brief: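 Steps: apoferritin (10 uM) was premixed with half-saturated 1-AMA in PBS, compounds were pin-transferred, plates stood 10 min at room temperature, fluorescence was read at 380/535 nm, and curves were fitted with a Hill equation.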
% is set by controls: 0 for no effect and ±100 for the full control effect; potency is the fitted concentration of half-maximal effect; tags give direction and shape of the fitted curve.

Chain of UniProt P02791 (P02791 whole entry, looked up): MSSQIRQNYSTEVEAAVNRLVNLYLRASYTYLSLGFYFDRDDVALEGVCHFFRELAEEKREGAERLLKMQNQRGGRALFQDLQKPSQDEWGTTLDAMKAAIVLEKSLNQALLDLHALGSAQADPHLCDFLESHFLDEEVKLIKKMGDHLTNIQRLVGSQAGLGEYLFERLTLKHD

Row | SMILES | Potency | activity change, negative = displacement
1 | COc1cc(OC)cc(OC)c1 | inactive | –
2 | COc1ccc(OCC(=O)N/N=C(\C)c2ccc(OC)cc2)cc1 | inconclusive: 31.6 µM [inhibitor, partial curve] | –
3 | Cc1ccc(SCCC(=O)N2CCC(C(N)=O)CC2)cc1 | inactive | –
4 | O=C(Cn1ccc(C(F)(F)F)n1)N=Nc1c(O)[nH]c2ccc(Br)cc12 | inconclusive: 50.1 µM [inhibitor, single point] | –
5 | Cc1nn(-c2ccccc2)c(N)c1C1(O)C(=O)Nc2ccc([N+](=O)[O-])cc21 (configuration not stated) | inconclusive: 25.1 µM [inhibitor, partial curve] | –
6 | Cc1cccc(C(=O)NNc2ncnc3c2cnn3-c2ccc(C)cc2C)c1 | inconclusive: 25.1 µM [inhibitor, single point] | –
7 | O=[N+]([O-])c1ccccc1-c1cc(-c2ccccc2O)n[nH]1 | inconclusive: 50.1 µM [inhibitor, single point] | –
8 | Cc1ccc(OCC(=O)Nc2nnc(S(=O)(=O)N3CCCCCC3)s2)cc1 | inconclusive: 3.16 µM [inhibitor, full curve] | –
9 | Cc1nn(C(=O)c2ccco2)c(C)c1Br | inconclusive: 25.1 µM [inhibitor, partial curve] | –
10 | O=C1CC(N2CCSCC2)C(=O)N1c1cccc(Br)c1 (configuration not stated) | inconclusive: 28.2 µM [inhibitor, partial curve] | –
11 | O=C(CCCN1C(=O)/C(=C\c2ccco2)SC1=S)Nc1ccc(O)cc1C(=O)O | inactive | –
12 | CCOc1cc(C(=S)N2CCCCC2)ccc1OCC(=O)NCc1ccccc1 | inconclusive: 44.7 µM [inhibitor, partial curve] | –
13 | COc1cc(/C=C2\CCCc3c2nc2ccccc2c3C(=O)O)cc(Br)c1O | inactive | –
14 | COc1ccc2nc(SCc3nc(N)nc(Nc4ccccc4)n3)[nH]c2c1 | inconclusive: 25.1 µM [inhibitor, partial curve] | –
15 | Oc1ccc(NCc2ccccc2OCc2ccc(Cl)cc2)cc1 | inconclusive: 50.1 µM [inhibitor, single point] | –
16 | Cc1cccc(COc2ccc(/C(O)=C3\C(=O)C(=O)N(CCN(C)C)C3c3ccncc3)cc2)c1 (configuration not stated) | inconclusive: 31.6 µM [inhibitor, partial curve] | –
17 | Cc1ccc(OCC(=O)c2cc(C)n(Cc3cccs3)c2C)c([N+](=O)[O-])n1 | inconclusive: 35.5 µM [inhibitor, partial curve] | –
18 | CC(C)Cn1c(N)c(C(=O)COC(=O)c2cc(C3CC3)nc3ccccc23)c(=O)n(C)c1=O | inconclusive: 50.1 µM [inhibitor, single point] | –
19 | CC(C)(C)c1nnc(NS(=O)(=O)c2ccc([N+](=O)[O-])cc2)s1 | inconclusive: 39.8 µM [inhibitor, partial curve] | –
20 | CC(C)(C)C1CCc2nc(NC(=O)Cc3ccccc3)sc2C1 (configuration not stated) | inconclusive: 4.47 µM [inhibitor, full curve] | –
21 | Cc1ccccc1N1C(=O)c2sc3nc4c(c(=O)n3c2C1=O)CCC4 | inactive | –
22 | S=C(Nc1ccc(Nc2ccccc2)cc1)Nc1ccccn1 | inconclusive: 3.16 µM [inhibitor, full curve] | –
23 | Cc1ccc2[nH]c(C)c(CCNC(=O)C3CCCCC3C(=O)OCC(F)(F)F)c2c1 (configuration not stated) | inconclusive: 35.5 µM [inhibitor, partial curve] | –

Row | SMILES | Potency | activity change, negative = displacement
24 | O=C(NCCc1ccc(Cl)cc1)c1cc(S(=O)(=O)N2CCCCC2)c[nH]1 | inconclusive: 8.91 µM [inhibitor, partial curve] | –
25 | O=C(C/C=N\OCc1ccc([N+](=O)[O-])cc1)Nc1ccc(Cl)cc1 | inconclusive: 28.2 µM [inhibitor, partial curve] | –
26 | CN(C)S(=O)(=O)Oc1ccsc1C(=O)Nc1cccc(Cl)c1Cl | inconclusive: 35.5 µM [inhibitor, single point] | –
27 | COc1ccc(C)cc1NC(=O)c1ccc(-c2ccc(C(C)=O)cc2)o1 | inconclusive: 35.5 µM [inhibitor, partial curve] | –
28 | COc1ccc(S(=O)(=O)Nc2ccc3oc(C)c(C(C)=O)c3c2)cc1 | inconclusive: 35.5 µM [inhibitor, single point] | –
29 | O=C(COc1ccccc1)N1CCN=C1SCc1cccnc1 | inconclusive: 39.8 µM [inhibitor, partial curve] | –
30 | COc1cc(/C=N/n2c(C)n[nH]c2=S)ccc1OCc1ccc(F)cc1 | inconclusive: 39.8 µM [inhibitor, partial curve] | –
31 | COc1ccccc1-c1coc2cc(OC(=O)/C=C/c3ccccc3)ccc2c1=O | inactive | –
32 | Cc1ccc(CCNS(=O)(=O)c2cnc[nH]2)cc1 | inactive | –
33 | O=C(CCc1ccccc1)NNC(=S)NC(=O)c1ccc(Cl)cc1 | inactive | –
34 | CCOC(=O)Nc1nc(-c2ccccc2)c(C(=O)c2ccccc2)s1 | inconclusive: 28.2 µM [inhibitor, partial curve] | –
35 | CCCCCCCCCCOC(=O)Cn1c(COc2ccc(OC)cc2)[n+](C)c2ccccc21 | inconclusive: 15.8 µM [inhibitor, partial curve] and inconclusive: 56.2 µM [inhibitor, single point] | –
36 | C/C(=N\N=C(/N)SC1CC(=O)N(c2ccc(Br)cc2)C1=O)c1cccs1 (configuration not stated) | inconclusive: 15.8 µM [inhibitor, partial curve] | –
37 | Cc1ccc(Cn2ccc(NC(=O)c3c(-c4ccccc4Cl)noc3C)n2)cc1 | inconclusive: 25.1 µM [inhibitor, partial curve] | –
38 | COC(=O)C(C)N(C(=O)c1ccc(C(=O)c2ccccc2)cc1)c1c(C)cccc1C (configuration not stated) | inconclusive: 28.2 µM [inhibitor, partial curve] | –
39 | CN(C)c1oc(/C=C/c2cccs2)nc1S(=O)(=O)c1ccccc1 | – | inconclusive: -43.2% [inhibitor]
40 | Cc1ccc(C2C(C(N)=S)=C(N)OC3=C2C(=O)CC(C)(C)C3)cc1 (configuration not stated) | inconclusive: 25.1 µM [inhibitor, single point] | –
41 | CC1(C)CC2CC(C)(CN2C(=O)c2ccccc2)C1 (configuration not stated) | inconclusive: 35.5 µM [inhibitor, partial curve] | –
42 | Cc1nc(Nc2ccc(Cl)cc2)c2nnn(Cc3ccccc3)c2n1 | inconclusive: 5.62 µM [inhibitor, full curve] | –
43 | O=c1oc(-c2ccccc2Cl)nc2ccsc12 | inconclusive: 35.5 µM [inhibitor, partial curve] | –
44 | CCOC(=O)CC1=C(C#N)C(c2cccnc2)C(C(=O)OCC)=C(N)O1 (configuration not stated) | inactive | –
45 | CCC(C(=O)Nc1ccccc1-c1ccccc1)c1ccccc1 (configuration not stated) | inconclusive: 7.94 µM [inhibitor, partial curve] | –
46 | CC1CC(C)CN(C(=O)C2CCC(CNS(=O)(=O)c3ccccc3)CC2)C1 (configuration not stated) | inconclusive: 50.1 µM [inhibitor, single point] | –

Row | SMILES | Potency | activity change, negative = displacement
47 | CC(=O)c1ccc(N2CCN(C(=O)Nc3ccc(F)cc3)CC2)cc1 | inactive | –
48 | Nc1c(NCCC2=CCCCC2)c(=O)[nH]c(=O)n1Cc1ccccc1 | inconclusive: 31.6 µM [inhibitor, partial curve] | –
49 | COc1ccc(Cl)cc1NC(=O)c1c(NCc2cccnc2)sc2c1CCC(C)C2 (configuration not stated) | inactive | –
50 | CCOc1cc(/C=N/NC(=O)c2ccc(=O)n(C)c2)ccc1O | inactive | –
51 | CCCC(=O)N1CCN(c2ccc(NC(=O)c3cc4ccccc4o3)cc2Cl)CC1 | inactive | –
52 | CC(OC(=O)CCc1nc2ccccc2c(=O)[nH]1)C(=O)c1ccc(Br)cc1 (configuration not stated) | inconclusive: 50.1 µM [inhibitor, single point] | –
53 | Nc1ccc(C#Cc2ccccc2)cc1 | inconclusive: 31.6 µM [inhibitor, single point] | –
54 | O=C(CN1N=C(c2ccccc2)CCC1=O)NCc1cccs1 | inconclusive: 12.6 µM [inhibitor, partial curve] | –
55 | CCCCCCC/C(C)=N/NC(=O)CC(=O)NCCc1ccccc1 | inconclusive: 31.6 µM [inhibitor, partial curve] | –
56 | O=C(O)COc1ccc(-c2nc(-c3ccccc3)c(-c3ccccc3)[nH]2)cc1 | inactive | –
57 | COc1cccc(NC(=O)Nc2nnc(N3CCCCC3C)s2)c1 (configuration not stated) | inconclusive: 28.2 µM [inhibitor, partial curve] | –
58 | CC(C)CNC(=O)NC(=O)COc1ncnc2sccc12 | inactive | –
59 | CCCCC(=O)N/N=C/c1ccc(-c2ccc([N+](=O)[O-])cc2)o1 | inconclusive: 35.5 µM [inhibitor, single point] | –
60 | Cc1ccc(OCC(=O)Nc2ccc(S(=O)(=O)N3CCCCC3)cc2)c([N+](=O)[O-])n1 | inconclusive: 28.2 µM [inhibitor, partial curve] | –
61 | COc1ccc(-c2nnc3n2N=C(c2ccccc2OC)CS3)cc1 | inconclusive: 35.5 µM [inhibitor, partial curve] | –
62 | O=C(Nc1nc2c(s1)CCCC2)c1cccc(S(=O)(=O)N2CCCc3ccccc32)c1 | inactive | –
63 | CC(C)(Nc1ccccc1)C(=O)c1ccccc1 | inconclusive: 12.6 µM [inhibitor, partial curve] | –
64 | CCCN1C(=O)/C(=N\OCC(=O)Nc2ccc(C(C)C)cc2)c2ccccc21 | inconclusive: 20 µM [inhibitor, partial curve, poor fit] | –
65 | Cc1cc(OCCSc2nnc(-c3cccs3)n2C)ccc1Cl | inconclusive: 11.2 µM [inhibitor, single point] | –
66 | O=C(CN1N=C(c2ccc(Cl)cc2)CCC1=O)NCCc1ccccc1 | inconclusive: 11.2 µM [inhibitor, partial curve] | –
67 | CC(C)Oc1ccc2c3c(c(=O)oc2c1)CCC3 | inconclusive: 20 µM [inhibitor, partial curve] | –
